Laboratory results reported in PubChem BioAssay AID588855 (National Center for Advancing Translational Sciences (NCATS), 2011).
In all, about 410,000 compounds went through this assay and about 5,000 (1.2%) were called active. Inconclusive results, whose numbers are uncertain, are shown with a selection of clear calls. Calls follow the shape of the dose curve; as a rule, active = well fitted inhibition curve with a large enough effect; inconclusive = small, poorly fitted or top-dose-only effect; inactive = no such curve, though single readings can be large or run the other way. Potencies of inconclusive entries are doubtful fits and often do not repeat.

assay: qHTS for Inhibitors of TGF-b; conditions: HepG2 CAGA-GFP TGF-b/SMAD3 reporter, GFP fluorescence, 18 h, TGF-beta stimulated, 500 pg/mL final; series mostly up to 46.1 µM; also: nearly all actives have a fitted effect of over 65% in size
In short: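 Read-out: total well GFP (ex488/em500-530) summed from mean per-cell fluorescence. Cells: HEPG2 CAGA-GFP, 1% FBS DMEM, 18 h at 37 degrees C with 500 pg/mL final TGF-beta. Unstimulated wells served as the full-inhibition control; stimulated DMSO wells = 0%.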
Potency is read from the fitted curve at half-maximal effect; tags tell the direction and shape of the fitted curve.

**Q.** Which Potency does the source give for CCN1CCN(c2nc(NCCO)c3ccccc3n2)CC1 here?
**A.** Its Potency is “inactive”.

**Q.** With O=C(NNC1=C(C(=O)C(F)(F)F)CCC1)c1ccccc1O as the compound, how does the Potency read?
**A.** Its Potency is inconclusive: 20 µM [inhibitor, partial curve, poor fit].

**Q.** With COc1ccc(-c2ccc3c(N)c(C(=O)NCc4ccc(Cl)cc4)sc3n2)cc1 as the compound, how does the Potency read?
**A.** Its Potency is inconclusive: 1 µM [inhibitor, full curve, poor fit].

**Q.** For COc1ccc(C(C)=O)cc1CN(c1ccccc1OC)S(=O)(=O)c1cccs1, which Potency is on record?
**A.** Its Potency is “inactive”.

**Q.** Which Potency does the source give for CN(CCc1ccccc1)C(=O)c1ccc(NC(=O)Cc2ccc([N+](=O)[O-])cc2)cc1 here?
**A.** The Potency was inconclusive: 35.5 µM [inhibitor, partial curve, poor fit].

**Q.** With CCc1ccc(OCC(=O)Nc2ccncc2)c(Br)c1 as the compound, how does the Potency read?
**A.** Its Potency is “inactive”.

**Q.** With CC(=O)Nc1ccccc1-c1nn[nH]n1 as the compound, how does the Potency read?
**A.** Its Potency is inconclusive: 6.31 µM [inhibitor, single point].

**Q.** With COc1cc(NC(=O)c2ccccc2)ccc1NC(=O)c1cc2ccccc2o1 as the compound, how does the Potency read?
**A.** Its Potency is inconclusive: 0.562 µM [inhibitor, full curve, poor fit].

**Q.** Which Potency does the source give for Cc1cccc(NC(=O)CSc2nc(-c3ccco3)nc3cc(=O)[nH]n23)c1 here?
**A.** The Potency was inconclusive: 20 µM [inhibitor, partial curve, poor fit].

**Q.** For CC(C)CNC(=O)CN(c1ccccc1)S(=O)(=O)c1ccccc1[N+](=O)[O-], which Potency is on record?
**A.** Its Potency is “inactive”.

**Q.** With Cc1ccc2cc(C#N)c(N3CCCN(C(=S)NCCCN(C)C)CC3)nc2c1 as the compound, how does the Potency read?
**A.** Its Potency is inconclusive: 15.8 µM [inhibitor, single point].

**Q.** With CCn1cc(C(=O)N2CCN(c3ccccc3F)CC2)c(=O)c2cc(S(=O)(=O)N(C)C3CCCCC3)ccc21 as the compound, how does the Potency read?
**A.** Its Potency is “inactive”.

**Q.** Which Potency does the source give for NS(=O)(=O)c1ccc(CCNCc2cc(Cl)ccc2OCc2ccccc2)cc1 here?
**A.** The Potency was active: 11.2 µM.

**Q.** Which Potency does the source give for O=C(CCN1CCN(c2ccccc2)CC1)N/N=C/c1ccc(O)c(O)c1O here?
**A.** Its Potency is “inactive”.

**Q.** Which Potency does the source give for COc1ccccc1NC(=O)CCNS(=O)(=O)c1ccc2c(c1)CC(C)N2C(=O)C1CC1 (stereo not drawn) here?
**A.** The Potency was inconclusive: 5.62 µM [inhibitor, single point].

**Q.** With C[C@H]1CCC/C=C/[C@@H]2C[C@H](O)C[C@H]2[C@H](O)[C@H](S(=O)c2ccc(O)cc2)CC(=O)O1 (stereo partly drawn) as the compound, how does the Potency read?
**A.** The Potency was active: 0.126 µM.

**Q.** With Cc1ccc(-n2c(=O)[nH]c3c(C(N)=O)nc(-c4ccc(C)o4)nc32)cc1 as the compound, how does the Potency read?
**A.** The Potency was inconclusive: 22.4 µM [inhibitor, single point].

**Q.** For NNC(=O)c1ccc(-c2cccc([N+](=O)[O-])c2)o1, which Potency is on record?
**A.** The Potency was “inactive”.

**Q.** With Cc1cccc(NC(=O)C(=O)NCC2CCCO2)c1 (stereo not drawn) as the compound, how does the Potency read?
**A.** Its Potency is inconclusive: 6.31 µM [inhibitor, single point].

**Q.** For C=CCOC(=O)C(C#N)c1nc2ccccc2nc1N1CCN(Cc2ccccc2)CC1 (stereo not drawn), which Potency is on record?
**A.** Its Potency is “inactive”.

**Q.** Which Potency does the source give for CCOc1ccc(-n2c(=S)sc3c(=O)[nH]c(SCC(=O)N4CCC(C)CC4)nc32)cc1 here?
**A.** Its Potency is inconclusive: 3.55 µM [inhibitor, full curve, poor fit].

**Q.** With Cc1ccc(NC(=O)c2ccc(Nc3ccccc3F)nc2)cc1 as the compound, how does the Potency read?
**A.** The Potency was “inactive”.

**Q.** With CCN(CC)CCN(C(=O)CCS(=O)(=O)c1ccccc1)c1nc2cc3c(cc2s1)OCO3 as the compound, how does the Potency read?
**A.** The Potency was inconclusive: 22.4 µM [inhibitor, single point].

**Q.** Which Potency does the source give for CC(C)(C)C(=O)c1sc(Nc2ccccc2)nc1N here?
**A.** The Potency was inconclusive: 35.5 µM [inhibitor, single point].

**Q.** For Cc1cccc(C)c1OCc1cc(C(=O)N2CCC(c3ccncc3)CC2)no1, which Potency is on record?
**A.** The Potency was inconclusive: 11.2 µM [inhibitor, partial curve].

**Q.** For Cc1ccc(/C=C2/C(=O)ON=C2c2ccccc2)o1, which Potency is on record?
**A.** The Potency was “inactive”.

**Q.** For CC(Nc1nc(-c2cccnc2)nc2ccccc12)c1ccccc1 (stereo not drawn), which Potency is on record?
**A.** Its Potency is “inactive”.

**Q.** For O=C(CCS(=O)(=O)c1ccccc1)Nc1nc2ccc(F)cc2s1, which Potency is on record?
**A.** Its Potency is active: 3.55 µM.

**Q.** Which Potency does the source give for Cc1ccc(NC(=O)c2ccc(NCCN)c([N+](=O)[O-])c2)cc1Cl here?
**A.** Its Potency is inconclusive: 17.8 µM [inhibitor, partial curve, poor fit].

**Q.** With C[C@@H]1CN([C@H](C)CO)C(=O)Cc2cc(NS(=O)(=O)c3ccc(Cl)cc3)ccc2O[C@H]1CN(C)Cc1ccc(C(F)(F)F)cc1 as the compound, how does the Potency read?
**A.** Its Potency is inconclusive: 35.5 µM [inhibitor, single point].

**Q.** With O=C(C1=C[C@H](c2ccc(Br)cc2)C[C@H](OCCCCO)O1)N1CCN(Cc2ccccc2)CC1 as the compound, how does the Potency read?
**A.** Its Potency is inconclusive: 14.1 µM [inhibitor, single point].

**Q.** For Cc1cccc(NC(=O)c2nc[nH]c2C(=O)N[C@@H](CCCCNC(=O)OC(C)(C)C)C(=O)OC(C)(C)C)c1, which Potency is on record?
**A.** Its Potency is inconclusive: 31.6 µM [inhibitor, single point].

**Q.** Which Potency does the source give for Cc1ccc(CSC2=NCCN2S(=O)(=O)c2ccccc2)cc1 here?
**A.** Its Potency is inconclusive: 15.8 µM [inhibitor, single point].

**Q.** Which Potency does the source give for Cc1cccc(NC(=O)CCc2c(C)nc3nc(CNC(=O)c4cccc(F)c4)nn3c2C)c1 here?
**A.** Its Potency is inconclusive: 25.1 µM [inhibitor, single point].

**Q.** For CC(=O)NC(c1ccc(C)cc1)c1cc([N+](=O)[O-])c2cccnc2c1O (stereo not drawn), which Potency is on record?
**A.** Its Potency is inconclusive: 14.1 µM [inhibitor, single point].

**Q.** With Nc1c(C(O)(C(F)(F)F)C(F)(F)F)ccc2ccccc12 as the compound, how does the Potency read?
**A.** Its Potency is inconclusive: 25.1 µM [inhibitor, single point].

**Q.** Which Potency does the source give for c1ccc(-c2nnc(C(c3ccccc3)c3ccccc3)o2)cc1 here?
**A.** The Potency was inconclusive: 35.5 µM [inhibitor, single point].

**Q.** With C=CCn1c(=O)c(C(=O)NCCN(CC)CC)c(O)c2ccccc21 as the compound, how does the Potency read?
**A.** The Potency was inconclusive: 3.98 µM [inhibitor, single point].

**Q.** For CCO[C@H]1OC(C(=O)N2CCN(Cc3ccccc3)CC2)=C[C@@H](C2CCCCC2)[C@@H]1CCCO, which Potency is on record?
**A.** Its Potency is inconclusive: 14.1 µM [inhibitor, single point].

**Q.** Which Potency does the source give for CC(C)(C)NCCOc1ccc(Br)cc1 here?
**A.** Its Potency is inconclusive: 0.562 µM [inhibitor, full curve, poor fit].

**Q.** For CC(C)(C)c1ccc(-c2nc3cc(NC(=O)c4cccc(Br)c4)ccc3o2)cc1, which Potency is on record?
**A.** The Potency was “inactive”.

**Q.** Which Potency does the source give for COc1ccc(C(C)(O)c2nc(/C=C/c3ccccc3)cs2)cc1 (stereo not drawn) here?
**A.** Its Potency is “inactive”.

**Q.** Which Potency does the source give for CCOc1ccc(Nc2nc3cc(S(=O)(=O)CC)ccc3o2)cc1 here?
**A.** Its Potency is inconclusive: 35.5 µM [inhibitor, single point].
